The other results are listed elsewhere or left out.
What was measured:
Test in all cases: glycan array binding signal (z-score within array); higher = stronger binding
Conditions in all cases: glycan notation: IUPAC condensed, linker removed
Fuc(a1-2)Gal = target: Fuc(a1-2)Gal
Summary of the method: (§1)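 Arrays were curated from the Consortium for Functional Glycomics database, 3228 in total, and kept only where the protein sequence was available. Binding is expressed as a within-array Z-score. This score was averaged across arrays of the same protein sequence at different concentrations or buffers and across linkers, and negative values can be read as non-binding.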

Fuc(a1-2)Gal(b1-3)GalNAc = target: Fuc(a1-2)Gal(b1-3)GalNAc
Summary of the method: as §1

[1] = target: Fuc(a1-2)Gal(b1-3)GalNAc(a1-3)[Fuc(a1-2)]Gal(b1-4)Glc
Summary of the method: as §1

[2] = target: Fuc(a1-2)Gal(b1-3)GalNAc(a1-3)[Fuc(a1-2)]Gal(b1-4)GlcNAc
Summary of the method: as §1

[3] = target: Fuc(a1-2)Gal(b1-3)GalNAc(b1-3)Gal
Summary of the method: as §1

[4] = target: Fuc(a1-2)Gal(b1-3)GalNAc(b1-3)Gal(a1-4)Gal(b1-4)Glc
Summary of the method: as §1

[5] = target: Fuc(a1-2)Gal(b1-3)GalNAc(b1-4)[Neu5Ac(a2-3)]Gal(b1-4)Glc
Summary of the method: as §1

Fuc(a1-2)Gal(b1-3)GlcNAc = target: Fuc(a1-2)Gal(b1-3)GlcNAc
Summary of the method: as §1

[6] = target: Fuc(a1-2)Gal(b1-3)GlcNAc(b1-2)Man(a1-3)[Fuc(a1-2)Gal(b1-3)GlcNAc(b1-2)Man(a1-6)]Man(b1-4)GlcNAc(b1-4)GlcNAc
Summary of the method: as §1

[7] = target: Fuc(a1-2)Gal(b1-3)GlcNAc(b1-2)Man(a1-3)[Fuc(a1-2)Gal(b1-3)GlcNAc(b1-2)Man(a1-6)]Man(b1-4)GlcNAc(b1-4)[Fuc(a1-6)]GlcNAc
Summary of the method: as §1

[8] = target: Fuc(a1-2)Gal(b1-3)GlcNAc(b1-3)Gal(b1-4)Glc
Summary of the method: as §1

[9] = target: Fuc(a1-2)Gal(b1-3)GlcNAc(b1-3)GalNAc
Summary of the method: as §1

[10] = target: Fuc(a1-2)Gal(b1-3)GlcNAc(b1-3)[Fuc(a1-2)Gal(b1-3)GlcNAc(b1-6)]GalNAc
Summary of the method: as §1

[11] = target: Fuc(a1-2)Gal(b1-3)GlcNAc(b1-3)[Gal(b1-4)GlcNAc(b1-6)]Gal(b1-4)Glc
Summary of the method: as §1

[12] = target: Fuc(a1-2)Gal(b1-3)GlcNAc(b1-3)[Neu5Ac(a2-6)Gal(b1-4)GlcNAc(b1-6)]Gal(b1-4)Glc
Summary of the method: as §1

[13] = target: Fuc(a1-2)Gal(b1-3)GlcNAc6S
Summary of the method: as §1

[14] = target: Fuc(a1-2)Gal(b1-3)[Fuc(a1-4)]GlcNAc
Summary of the method: as §1

[15] = target: Fuc(a1-2)Gal(b1-3)[Fuc(a1-4)]GlcNAc(b1-2)Man(a1-3)[Fuc(a1-2)Gal(b1-3)[Fuc(a1-4)]GlcNAc(b1-2)Man(a1-3)]Man(b1-4)GlcNAc(b1-4)GlcNAc
Summary of the method: as §1

[16] = target: Fuc(a1-2)Gal(b1-3)[Fuc(a1-4)]GlcNAc(b1-2)Man(a1-3)[Fuc(a1-2)Gal(b1-3)[Fuc(a1-4)]GlcNAc(b1-2)Man(a1-6)]Man(b1-4)GlcNAc(b1-4)[Fuc(a1-6)]GlcNAc(b1-4)[Fuc(a1-6)]GlcNAc
Summary of the method: as §1

[17] = target: Fuc(a1-2)Gal(b1-3)[Fuc(a1-4)]GlcNAc(b1-3)[Fuc(a1-3)[Gal(b1-4)]GlcNAc(b1-6)]Gal(b1-4)Glc
Summary of the method: as §1

[18] = target: Fuc(a1-2)Gal(b1-3)[Fuc(a1-4)]GlcNAc(b1-3)[Gal(b1-4)GlcNAc(b1-6)]Gal(b1-4)Glc
Summary of the method: as §1

[19] = target: Fuc(a1-2)Gal(b1-4)Fuc(a1-3)]GlcNAc(b1-2)Man(a1-3)[Fuc(a1-2)Gal(b1-4)[Fuc(a1-3)]GlcNAc(b1-2)Man(a1-6)]Man(b1-4)GlcNAc(b1-4)GlcNAc
Summary of the method: as §1

Fuc(a1-2)Gal(b1-4)Glc = target: Fuc(a1-2)Gal(b1-4)Glc
Summary of the method: as §1

Fuc(a1-2)Gal(b1-4)Glc6S = target: Fuc(a1-2)Gal(b1-4)Glc6S
Summary of the method: as §1

Fuc(a1-2)Gal(b1-4)GlcNAc = target: Fuc(a1-2)Gal(b1-4)GlcNAc
Summary of the method: as §1

[20] = target: Fuc(a1-2)Gal(b1-4)GlcNAc(b1-2)Man
Summary of the method: as §1

[21] = target: Fuc(a1-2)Gal(b1-4)GlcNAc(b1-2)Man(a1-3)[Fuc(a1-2)Gal(b1-4)GlcNAc(b1-2)Man(a1-6)]Man(b1-4)GlcNAc(b1-4)GlcNAc
Summary of the method: as §1

[22] = target: Fuc(a1-2)Gal(b1-4)GlcNAc(b1-2)Man(a1-3)[Fuc(a1-2)Gal(b1-4)GlcNAc(b1-2)Man(a1-6)]Man(b1-4)GlcNAc(b1-4)[Fuc(a1-6)]GlcNAc
Summary of the method: as §1

[23] = target: Fuc(a1-2)Gal(b1-4)GlcNAc(b1-2)[Fuc(a1-2)Gal(b1-4)GlcNAc(b1-4)]Man(a1-3)[Fuc(a1-2)Gal(b1-4)GlcNAc(b1-2)Man(a1-6)]Man(b1-4)GlcNAc(b1-4)GlcNAc
Summary of the method: as §1

[24] = target: Fuc(a1-2)Gal(b1-4)GlcNAc(b1-3)Gal(b1-4)GlcNAc
Summary of the method: as §1

B1: CrataBL (Crataeva tapia), C0HJA4 (protein)
chain: AILTGVPYYILPSTSRAGFSPDNLRKNTSQLSCPLDLITQLRFPRRIGVPVIFTPQNSSLKVVPLSHNLNIHTCSDLWFCPESKIWTVKSSLTHGGSVVTTGGTFRSLGSWFRIERHGDSYKLVHCPRGSTPCRDVGIETVGGGGRRYLAPRDRPLAVRFTRASG
Fuc(a1-2)Gal
  glycan array binding signal (z-score): -0.326
Fuc(a1-2)Gal(b1-3)GalNAc
  glycan array binding signal (z-score): -0.477
[1]
  glycan array binding signal (z-score): -0.439
[2]
  glycan array binding signal (z-score): -0.334
[3]
  glycan array binding signal (z-score): 0.106
[4]
  glycan array binding signal (z-score): -0.345
[5]
  glycan array binding signal (z-score): -0.406
Fuc(a1-2)Gal(b1-3)GlcNAc
  glycan array binding signal (z-score): -0.275
[6]
  glycan array binding signal (z-score): -0.397
[7]
  glycan array binding signal (z-score): -0.496
[8]
  glycan array binding signal (z-score): -0.296
[9]
  glycan array binding signal (z-score): -0.444
[10]
  glycan array binding signal (z-score): 0.24
[11]
  glycan array binding signal (z-score): -0.399
[12]
  glycan array binding signal (z-score): -0.486
[13]
  glycan array binding signal (z-score): -0.217
[14]
  glycan array binding signal (z-score): -0.53
[15]
  glycan array binding signal (z-score): -0.483
[16]
  glycan array binding signal (z-score): -0.192
[17]
  glycan array binding signal (z-score): -0.526
[18]
  glycan array binding signal (z-score): -0.53
[19]
  glycan array binding signal (z-score): -0.396
Fuc(a1-2)Gal(b1-4)Glc
  glycan array binding signal (z-score): -0.464
Fuc(a1-2)Gal(b1-4)Glc6S
  glycan array binding signal (z-score): 0.531
Fuc(a1-2)Gal(b1-4)GlcNAc
  glycan array binding signal (z-score): -0.486
[20]
  glycan array binding signal (z-score): -0.091
[21]
  glycan array binding signal (z-score): -0.459
[22]
  glycan array binding signal (z-score): -0.533
[23]
  glycan array binding signal (z-score): -0.479
[24]
  glycan array binding signal (z-score): -0.497

Reference: the supplement of paper PMC8728848
